According to paper PMC6919601, “Identification of Plasmodium dipeptidyl aminopeptidase allosteric inhibitors by high throughput screening” (PLoS ONE, 2019):
Hit rate of the full screen: of about 110,000 compounds, about 230 (0.21%) showed an effect of 50% or more. The list shows a part of the results.

Each compound was assayed against DPAP1 (Plasmodium falciparum, UniProt Q8IIJ9) (assay: primary screen, percent inhibition; read by cleavage of a fluorogenic dipeptide substrate; higher = more effect of the substance).
Set-up: species or system P. falciparum D10 trophozoite lysates; single well
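Also: 30 min substrate incubation versus DMSO and 10 µM JCP410 controls.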

Chain of DPAP1 (Q8IIJ9 whole entry, looked up): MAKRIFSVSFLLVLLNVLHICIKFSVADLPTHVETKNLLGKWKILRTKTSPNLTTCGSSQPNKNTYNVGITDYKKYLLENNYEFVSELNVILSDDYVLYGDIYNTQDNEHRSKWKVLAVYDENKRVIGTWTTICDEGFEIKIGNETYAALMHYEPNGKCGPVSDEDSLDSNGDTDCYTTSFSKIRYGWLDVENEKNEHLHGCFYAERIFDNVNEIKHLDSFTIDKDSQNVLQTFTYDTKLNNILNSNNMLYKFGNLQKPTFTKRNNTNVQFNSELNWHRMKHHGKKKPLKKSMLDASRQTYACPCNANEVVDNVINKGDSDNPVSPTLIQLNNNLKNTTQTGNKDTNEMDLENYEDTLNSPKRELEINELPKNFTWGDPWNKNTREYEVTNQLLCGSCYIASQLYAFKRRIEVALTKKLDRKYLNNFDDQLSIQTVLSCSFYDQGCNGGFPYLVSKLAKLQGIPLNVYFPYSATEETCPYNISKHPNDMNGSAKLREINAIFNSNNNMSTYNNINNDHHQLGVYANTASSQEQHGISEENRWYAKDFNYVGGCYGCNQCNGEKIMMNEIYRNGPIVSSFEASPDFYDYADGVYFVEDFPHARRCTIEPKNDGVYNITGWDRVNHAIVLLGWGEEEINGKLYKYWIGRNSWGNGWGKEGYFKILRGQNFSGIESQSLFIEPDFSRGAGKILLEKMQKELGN

Structure (SMILES) | % Inhibition @ 10 uM
COc1cccc(C2C(C(=O)c3ccc(F)cc3)=C(O)C(=O)N2Cc2cccnc2)c1 (stereo not shown) | 0.755%
COc1ccccc1-c1nnc(SCC#CCOC(=O)c2ccc(Cl)cc2)o1 | 3.73%
Cc1ccc(S(=O)(=O)Cc2nc(-c3ccc(C(=O)NCCc4ccccc4)cc3)oc2C)cc1 | -3.29%
O=C(Nc1cccc2ccccc12)C1CCC(N2C(=O)c3ccccc3C2=O)CC1 (stereo not shown) | 3.37%
COC(=O)C1=CN(CCc2ccccc2)C=C(C(=O)OC)C1c1ccc2c(c1)OCO2 | -10.6%
O=C(O)CN1C(=O)c2ccc(C(=O)O)cc2C1=O | 3.06%
COc1ccc(C(=O)Cn2c(N3CCN(C)CC3)nc3c2c(=O)n(C)c(=O)n3C)cc1OC | -0.834%
CC(C)NC(=O)C(=O)c1c(O)[nH]c2ccccc12 | -6.67%
O=C(C(Cc1ccc([N+](=O)[O-])cc1)N1C(=O)c2ccccc2C1=O)N1CCCCC1 (stereo not shown) | -4.26%
Cc1ccccc1N1CCN(CCCCN2C(=O)C3CCCN3C2=O)CC1 (stereo not shown) | -0.0619%
CCC1CCC(N2CCN(C/C=C/c3ccccc3)CC2)CC1 (stereo not shown) | -0.446%
Cc1ccc(C(=O)Nc2nccc(C)n2)cc1 | -5.92%
CCC(=O)Nc1ccc2nn(-c3ccc(Cl)cc3)nc2c1 | -6.25%
COc1ccc(NC(=O)c2ccc(C)cc2)cc1OC | -2.78%
CC1CCN(S(=O)(=O)c2ccc(NC(=O)COc3ccc(C(C)(C)C)cc3)cc2)CC1 | -5.21%
O=C(c1ccc(CS(=O)c2cccc(Cl)c2)o1)N1CCN(Cc2ccccc2)CC1 (stereo not shown) | 1.22%
COc1cccc(C(=O)NCc2ccc(C)cc2)c1 | 2.33%
Cc1nc2nc(NC(=O)COc3ccc(Cl)cc3)nn2c(O)c1Cc1ccccc1 | -6.81%
COc1ccc(Cn2ccc3nc(C)c(C(=O)NCc4ccc5c(c4)OCO5)cc3c2=O)cc1 | -2.48%
CN(Cc1ccccc1)C(=O)c1ccc(Br)cc1 | -4.35%
CC1CCN(C(=O)c2nn3c(c2Cl)NC(c2cccs2)CC3C(F)(F)F)CC1 (stereo not shown) | -2.87%
Cc1ccc(C(=O)Nc2nnc(S(=O)(=O)NCc3ccccc3)s2)cc1 | -5.37%
COc1ccc(-n2c(SC)nc3c(c2=O)C2(CCCC2)Cc2ccccc2-3)cc1 | -4.03%
Cn1c(=O)c2ncc(-c3ccccc3)nc2n(C)c1=O | 0.0999%
CC(=O)Nc1ccc(S(=O)(=O)N2CCN(c3ccc([N+](=O)[O-])cc3)CC2)cc1 | 11.1%

Structure (SMILES) | % Inhibition @ 10 uM
CCC1CCCCN1CCCNC(=O)C1=C(C)C(=O)OC12CCCCC2 (stereo not shown) | -2.11%
O=C(Nc1nnc(-c2ccc(Cl)cc2Cl)s1)c1ccccc1F | 1.67%
CC(C)(C)c1cc(C(=O)CSc2nnnn2-c2ccccc2)cc(C(C)(C)C)c1O | -4.06%
COc1ccc(NC(=O)C2=C(C)NC(=O)NC2c2ccccc2F)c(OC)c1 (stereo not shown) | -1.95%
Cc1ccsc1CN1CCN(c2ccccc2Cl)CC1 | 3.1%
CCOC(=O)c1ccc(CNC(=O)c2c(N)no[n+]2[O-])o1 | -5.53%
CCCC(=O)Nc1ccc(S(=O)(=O)Nc2ccc(OC)cc2)cc1 | -1.6%
COC(=O)c1nnn(-c2nonc2N)c1CS(=O)(=O)Cc1ccccc1 | 0.883%
CC1(c2ccccc2)CNC(=O)C1 (stereo not shown) | -3.4%
Clc1ccccc1COc1ccc(CNCc2cccnc2)cc1 | -0.992%
COc1ccc(C2C(C(=O)c3ccccc3)=C(O)C(=O)N2CCCn2ccnc2)cc1 (stereo not shown) | -9.88%
COc1ccc(C2=NN(c3nc(C)cc(C)n3)C(=O)C2)cc1 | -1.11%
CCc1c(C)c2ccc3c(c2oc1=O)CN(Cc1ccc(F)cc1)CO3 | 3.54%
CCC1CCCCN1C(=O)CSc1ncccc1C(=O)O (stereo not shown) | -5.92%
Cc1ccc2cc3cc(C(=O)NCC4COc5ccccc5O4)sc3nc2c1 (stereo not shown) | 1.22%
Cc1nn(CCCC(=O)NCCc2ccccc2)c(=O)c2nn(-c3ccccc3)c(C)c12 | -2.31%
COC(=O)c1c(NC(=O)c2ccc(OC)c(OC)c2)sc2c1CCCC2 | -1.1%
COc1ccc(CC(=O)NC2CCCC2)cc1 | 0.273%
Cc1cccc(CSCc2nnc(NC(=O)/C=C/c3ccccc3)s2)c1 | 3.25%
CC(C)(C)C1CCc2c(sc(NC(=O)C3CCCO3)c2C(N)=O)C1 (stereo not shown) | -0.267%
Cc1[nH]c2ccccc2c1CCNC(=O)c1cccs1 | -3.34%
Cc1ccc([N+](=O)[O-])c2c3c([nH]c12)/C(=N/CCO)CCC3 | 0.989%
O=C(NCCCc1nc2ccccc2n1Cc1ccccc1F)c1ccccc1 | 6.03%
O=C(NCc1ccccc1)C1=Cc2sc3c(c2CS1)CCCC3 | 7.06%
O=C(Nc1c(O)c2ccccc2oc1=O)c1ccc2c(c1)OCO2 | -0.426%

Structure (SMILES) | % Inhibition @ 10 uM
Cc1cc(S(=O)(=O)N2CC=C(c3c(C)[nH]c4ccccc34)CC2)ccc1F | 2.13%
CCCCN(C)C(=O)/C(=C/c1cn(CC)c2ccccc12)NC(=O)c1ccccc1OC | -3.52%
OC(COc1ccccc1)CN1CCN(Cc2ccccc2)CC1 (stereo not shown) | -4.5%
Cn1cc(C(CC(=O)c2ccccc2)C(=O)O)c2ccccc21 (stereo not shown) | 0.313%
COc1ccc(C2=NS(=O)(=O)N(C)C(C(=O)NCc3ccccn3)=C2)cc1 | -1.06%
Cc1nn(CCCC(=O)NCc2ccccc2Cl)c(=O)c2nccn12 | 0.0882%
Cc1ccc(-c2cc(C(F)(F)F)n3ncc(C(=O)N(C)Cc4c(C)nn(C)c4C)c3n2)cc1 | 2.32%
CC(C)COC(=O)NCCCOC(=O)Nc1ccccc1 | -4.61%
Nc1nonc1-c1nc2ccccc2n1CC(=O)Nc1ccccc1Cl | -6.38%
CCCOc1ccc(C2NCCc3c2[nH]c2ccccc32)cc1OC (stereo not shown) | 0.214%
COCCN1C(=O)/C(=C/c2ccc(O)cc2)S/C1=N\c1ccccc1 | 12.6%
CC1CC(Nc2ccccc2)c2ccccc2N1C(=O)c1ccc2c(c1)OCO2 (stereo not shown) | 4.98%
CC1=C(C(=O)Nc2ccc(Br)cc2)C(c2ccc3c4c(cccc24)CC3)NC(=O)N1 (stereo not shown) | -2.91%
O=C(O)C(Cc1ccccc1)Nc1ncnc2ccccc12 (stereo not shown) | 1.52%
CCN(CC)C(=O)C1CCCN(C/C(C)=C/c2ccccc2)C1 (stereo not shown) | -0.446%
O=S(=O)(Nc1cccc2cccnc12)c1cccs1 | -0.884%
CCOc1ccc2[nH]c(SCC(O)C(C)(C)C)nc2c1 (stereo not shown) | 4.98%
CCc1ccc(NC(=O)CSc2nc(N)cc(N)n2)cc1 | -3.24%
COc1ccc(Nc2nc(C)cc(C)c2C#N)cc1 | -0.436%
CCCc1[nH]nc2c1C(c1ccc(Cl)cc1)C(C#N)=C(N)O2 (stereo not shown) | -2.89%
Cc1nc2sc3c(c2c(=O)n1CC(=O)NCc1ccccc1)CCCC3 | 1.91%
O=C(/C=C/c1ccccc1)NC(=S)N1CCCCCC1 | 3.32%
Cc1ccc(Cl)cc1NC(=O)CSc1nc2ccccc2n1C | -6.75%
Cc1cccc(NC(=O)c2cccc(S(=O)(=O)Nc3cccc(C(=O)O)c3)c2)c1 | 3.05%
CC(=O)c1cccc(N2C(=O)C3CCCCC3C2=O)c1 (stereo not shown) | 9.94%

Structure (SMILES) | % Inhibition @ 10 uM
Cc1cccc(NC(=O)CSc2ncnc3[nH]cnc23)c1 | -1.6%
CCCCNCc1c(C(=O)O)n(Cc2ccccc2F)c2ccccc12 | 3.54%
COc1cc2c(cc1OC)C(COc1ccc3c(C)cc(=O)oc3c1)N(C(=O)c1cccs1)CC2 (stereo not shown) | -0.58%
O=[N+]([O-])c1ccc(CN2CCCC2CO)cc1 (stereo not shown) | 3.15%
O=C(NCc1ccco1)C1CC(=O)N(c2ccc(Br)cc2)C1 (stereo not shown) | -2.74%
CCC(Oc1ccccc1)C(=O)Nc1sc(C)c(C)c1C#N (stereo not shown) | -4.65%
Cc1cc2cc(CNC(=O)CC(C)C)ccc2[nH]1 | -3.7%
C=Cc1ccc(Cn2c(C)c(CNCc3ccc(CC)cc3)c(C(=O)O)c2C)cc1 | -5.49%
CCOC(=O)N1CCN(C(=O)CNS(=O)(=O)c2ccc(Br)cc2)CC1 | 1.4%
COc1ccc(Oc2ccc(N)cc2)cc1 | -1.88%
O=C1OC(c2ccc(Cl)c(Cl)c2)=N/C1=C\c1ccco1 | 1.97%
CCn1ncc(Br)c1C(=O)Nc1sc2c(c1C(N)=O)CCC2 | -3.5%
COc1ccc(C2C(C#N)=C(N)Oc3c2c(C)nn3-c2ccc(C)cc2)cc1OC (stereo not shown) | -8.35%
CCn1cc(/C=C(\NC(=O)c2ccco2)C(=O)NCCCN2CCOCC2)c2ccccc21 | -3.52%
O=C(O)C1CCCCC1C(=O)Nc1ccc(Oc2ccc(Cl)cc2)cc1 (stereo not shown) | 2.65%
CC1=C(C#N)C(=O)N(C)C(=O)/C1=C\Nc1ccc(S(=O)(=O)N2CCOCC2)cc1 | -4.68%
COc1ccc(/C=C/C(=O)O)cc1S(=O)(=O)N1CCCCCC1 | 9.21%
CC(=O)Nc1ccc(C(=O)Nc2ccc(Cl)cc2)cc1 | 4.73%
COc1ccc(C(CC(=O)O)NC(=O)c2ccc(C)cc2)cc1 (stereo not shown) | 6.56%
COc1cc(-c2nc3n(n2)C(c2ccncc2)C(C(N)=O)=C(C)N3)cc(OC)c1OC (stereo not shown) | -1.47%
COCC(C)NC1CCc2ccccc2C1 (stereo not shown) | -1.81%
Cc1cc(OCC(=O)NCCO)cc(C)c1Cl | 0.343%
N=C1/C(=C\c2ccc(OCCCOc3ccccc3)cc2)C(=O)N=C2SC(N3CCOCC3)=NN12 | -1.66%
CC(C)OCCC/N=c1/c(-c2ccccc2)c(O)c1=O | -3.5%
O=C1/C(=C\c2cccs2)Sc2ccccc21 | -4.41%
